From the supplement of paper PMC10126150
Values marked as one replicate rest on one cluster of the flow cell; about a third of the high ones do not repeat.

System: ATP
Assay: switch fluorescence ratio, 500 uM ATP over buffer (Cy3 cluster intensity, sum of 5 cycles each) (fold (ratio)); higher = stronger signal-on switching upon ATP binding; sequences stand for … in TCGTCGGCAGCGTCAGATGTGTATAAGAGACAGTTTTTTTTTTTTTTTTTTTTTTTTT…TC
Settings: aptamer strand: ATP DNA aptamer (quencher-CACCTGGGGGAGTATTGCGGAGGAAGG + anchor), 100 nM annealed; ATP concentration: 500 uM; one replicate
Procedure, shortened: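 After annealing to 100 nM quencher-labelled ATP aptamer, Cy3-labelled switching-strand clusters on a modified Illumina MiSeq flow-cell were imaged in selection buffer. A second image followed after 15 min with 500 uM ATP at 22 °C, and five such buffer/ATP cycles were done, each separated by NaOH stripping and re-annealing. The fluorescence ratio, averaged per switch-domain sequence, is summed target-cycle over summed buffer-cycle Cy3 intensity per cluster, with clusters outside 100-1000 RFU excluded.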
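Also: ATP exposure 15 min at 22 °C before imaging.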

| Sequence | switch fluorescence ratio |
| --- | --- |
| GCATATGTGC | 0.991 |
| GTCTGGTTCC | 1.04 |
| CCGGTGGGAA | 0.979 |
| ATCTTAAATG | 1.03 |
| AACGCCTGCT | 1.01 |
| ACCGGGACTA | 1.05 |
| CAGCCTGGCG | 0.984 |
| CCTTCTGGTG | 2.09 |
| CGGATTTGCA | 0.999 |
| AAGACCCGTC | 0.898 |
| ACTACTGAGG | 1.07 |
| GCCTGATACG | 1.14 |
| GACAGGGTGA | 1.09 |
| CTAGCAACGA | 1.17 |
| TCAACATTTA | 0.968 |
| TGTGTGAGA | 1.04 |
| CGCGCATTTT | 1.04 |
| GAACCCATGC | 1.24 |
| AAAGGATGGA | 0.948 |
| GGTCGATTGC | 1.01 |
| TTGTTGTTTC | 1.04 |
| GACGGTATTG | 0.977 |
| CTAAAATAGG | 1.05 |
| ACCATCGTGT | 1.05 |
| GATGATAAGC | 0.985 |

| Sequence | switch fluorescence ratio |
| --- | --- |
| CTTCACCATT | 0.998 |
| ACCTACCAAA | 1.28 |
| AGGGCTGGCA | 0.966 |
| ACGTTGCCTT | 0.998 |
| CACTCAATCT | 1.07 |
| TATAAAAAGG | 0.97 |
| GCAAGTCCTC | 1.06 |
| GCGTTCCAAT | 1.02 |
| TATGGAGTAG | 0.96 |
| TTTTTCTGT | 1.01 |
| AAGGTCAGGA | 1.02 |
| ACTGGATGCA | 1.02 |
| GTATATAAAG | 1.01 |
| TATCCATTGG | 1.02 |
| TTCCGGTGCT | 1.31 |
| CCTTCGATGG | 1.3 |
| TCCTACTAGC | 1.38 |
| ATACCCAGCA | 1.07 |
| TTTGAGGAGT | 0.999 |
| TGGTCCTCGA | 0.963 |
| ATAAATGCCA | 0.983 |
| GTCAATATTG | 1.01 |
| GGCTCCAATG | 1.02 |
| ACGCGGTCGA | 1.1 |
| TGGCGTTCGA | 1.04 |

| Sequence | switch fluorescence ratio |
| --- | --- |
| AACATGCAGT | 1.06 |
| TAGCATGAGT | 0.968 |
| GGGGGCCGCG | 1 |
| GGATGGCACG | 0.914 |
| CACTATCCCG | 0.983 |
| TAAAACACTT | 1.02 |
| TGAGTAAGGC | 0.932 |
| CACACCAGTT | 1.12 |
| GGATACAATA | 0.98 |
| AGTTTACCCG | 1.03 |
| ACGACTGGAT | 1.06 |
| TACTTCCGGA | 1.08 |
| AGGGACTGAG | 0.926 |
| ACATCAGACC | 1.04 |
| AATTGGTAAT | 0.967 |
| GGTGGTAGTG | 0.981 |
| GGACTGGGG | 1.05 |
| GTTTTTTAT | 0.979 |
| GAAAATGGTT | 0.997 |
| GCTACCTCTT | 1 |
| CCTAGGAGGA | 0.992 |
| TGATTACGCT | 0.968 |
| GGTGTCCGCG | 1.01 |
| AACCTCGTTA | 1.03 |
| TTAATCTACC | 1.14 |

| Sequence | switch fluorescence ratio |
| --- | --- |
| TGCACTACAG | 1.01 |
| ATTTTATATC | 1.02 |
| GGCGTCGGCT | 1 |
| CTATAGTCA | 1 |
| GGTGCGCGTC | 0.981 |
| TCACGATGTA | 1.03 |
| TAGCGTGATT | 0.988 |
| ATGGTAAGTC | 0.998 |
| AGCGAGATGG | 1.04 |
| TGTCGTGCTA | 0.953 |
| GATTCCTTAA | 1.02 |
| GCAGCCGTCA | 1.02 |
| CGGGTGTCTC | 1.06 |
| GGTTTATAGG | 0.973 |
| GGATTGCCGC | 1.07 |
| ATGCGGACCT | 0.991 |
| GCGACAATAT | 2.87 |
| CTATCTGAGT | 1.01 |
| ACTTTAGTCA | 1.02 |
| TGATCATAT | 0.976 |
| GCTGTATGCG | 0.915 |
| TAATCTGGGT | 0.93 |
| ATTAGCGTTG | 1.02 |
| GACTGGACAT | 1.05 |
| AGGGCTGAGT | 1.03 |

| Sequence | switch fluorescence ratio |
| --- | --- |
| TGAATATGG | 0.973 |
| TATAGCACTC | 1.2 |
| CAGGGCTTGC | 0.974 |
| GTTTAAAGCT | 1.17 |
| AGTCACAACG | 1.04 |
| GCGGGTACGG | 0.977 |
| GTCGTAAGGG | 1.01 |
| TAAGGACCTG | 0.923 |
| CGCTCGAAAG | 0.987 |
| ATTAGAAAAC | 0.982 |
| GTGAGCAGAG | 1.06 |
| GAGCTGGACT | 1.07 |
| CGATGAGCAT | 1.06 |
| TGGCATTTG | 1.04 |
| TAAAGGGGT | 0.993 |
| AGGGCACCGT | 0.968 |
| CCGTTTTAAG | 0.973 |
| CCGAATTCGC | 1.06 |
| TGGTGACGAG | 1.03 |
| TTTACGACCT | 1.45 |
| AGTTATTACT | 1 |
| GAAAACACGT | 1 |
| ACCAACGTCA | 1.32 |
| CACAAAACTT | 1.07 |
| ATTAGTGCAG | 1 |

| Sequence | switch fluorescence ratio |
| --- | --- |
| AAATCGGGTG | 1.16 |
| TGTAATCGAG | 1.01 |
| TGGCCCATGG | 1.04 |
| GTAACATCTT | 0.97 |
| CATTCAACCG | 1.15 |
| GGGCTAACTC | 1.04 |
| TATGCATACT | 1.07 |
| AGAGGTTACT | 0.994 |
| AGTTTTGCTG | 1 |
| GTGCGGAAAA | 0.956 |
| AACGCATATC | 3.36 |
| CTCGCACCGG | 1.13 |
| AGAGGGATTC | 0.988 |
| ATCTGATTGC | 0.976 |
| GCTGTGCCTT | 0.974 |
| TTAATACTGG | 1.01 |
| AGTTAGACCA | 0.999 |
| AGTTGGTGGC | 0.994 |
| CAGAGTATGG | 1.02 |
| GGCCTGGCAC | 1.01 |
| ACATCATATG | 1.03 |
| CGAACGAATG | 1.02 |
| CGATATGGCA | 1.06 |
| CAAGAGTCAT | 0.991 |
| ATGGATTATA | 0.976 |

| Sequence | switch fluorescence ratio |
| --- | --- |
| TGGGTCGTTT | 0.954 |
| GTGATCAATA | 0.981 |
| GGGCCTGTGT | 0.978 |
| GAGGAAGCCC | 0.93 |
| GCTGAAAACG | 1.02 |
| CGCAACCCGT | 1.48 |
| CCCTTAGAAG | 0.961 |
| CCTCTATGAC | 3.54 |
| AATCTCCTAC | 1.08 |
| GAATGCGGGG | 1.04 |
| AGTCGCGGGG | 1.03 |
| GGTGACTCGT | 1 |
| ACTTGGATTC | 1 |
| ATGTGATCGA | 0.961 |
| TTATGCTTTG | 1.03 |
| ACTTTAAAGT | 1.07 |
| CGTCACGGAG | 1.03 |
| TATTGGATAT | 0.984 |
| AGTCGTCGCA | 0.996 |
| GCATGGCCGG | 0.99 |
| AACCAGCA | 1.06 |
| TCTATACCTT | 1.17 |
| TTGAATTGTG | 0.997 |
| CGCCTCGGCC | 1.04 |
| ATTACGCAAA | 2.43 |

| Sequence | switch fluorescence ratio |
| --- | --- |
| GTCCCTCAGG | 3.88 |
| ACTTCTCATA | 1.04 |
| AAATCAAGGC | 0.973 |
| CGTTAACCAT | 1.03 |
| AAGGCCGGCT | 1.11 |
| TGCGAGGAAT | 1.07 |
| AAAGCGAAA | 0.942 |
| ATGCGGCATG | 1.01 |
| GGCGTTCAC | 1.08 |
| CTGAATGGTC | 1 |
| GTTGATGGTA | 1.01 |
| AATGGCTGTA | 0.994 |
| TTTGGTACCT | 1.07 |
| TTTGGTCAG | 0.967 |
| AAGTTGGTAA | 0.976 |
| TGTTAATGT | 1.02 |
| CCCATGCCGA | 1.03 |
| GCATGGGGT | 1.03 |
| AGTTGTTAAT | 1 |
| TTAGCGATG | 0.972 |
| TTTACAGTCT | 1.08 |
| TTGATTCAAA | 0.98 |
| ACCGGTTTGC | 0.996 |
| ACCTTTAGGG | 1.03 |
| AACCGAGGAC | 1.07 |
